Source: PubChem BioAssay (NCI)
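Test compounds were applied to cells in 96-well plates for 48 hours at 5 doses. Abbreviation: GI50, concentration required for 50% inhibition of growth. TGI is the concentration that stops growth completely.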 Peptide text beside a SMILES is read from it. * marks the point of attachment. Boc = CC(C)(C)OC(=O)*

Tested on: NCI-H322M lung
Assay: DTP human tumour cell line panel, 48 h

| Compound | TGI [µM] | GI50 [µM] |
| --- | --- | --- |
| CC/C=C\C/C=C\C/C=C\CCCCCCCC(=O)OCC(O)CO (stereo not given) | > 97.1 | – |
| OCC12C3C4C5C3C1C5C42 (stereo not given) | > 100 | – |
| COc1c(Br)cc2c(c1OC)C(Br)CCC(Br)(Br)C2=O (stereo not given) | 12.7 | – |
| N#CC1(C(N)=O)C(c2ccc(Cl)cc2)CC(=O)CC1c1ccc(Cl)cc1 (stereo not given) | 39.1 | 17.3 |
| CCCN(CCS(C)(=O)=O)Cc1ccc(-c2ccc3ncnc(Nc4ccc(OCc5cccc(F)c5)c(Cl)c4)c3c2)o1 | > 25 | 0.781 |
| C=CCC1(OCc2ccccc2)C(=O)C(=O)OC1C1COC(C)(C)O1 (stereo not given) | > 100 | – |
| CN=c1ccc2nc3ccc(N)cc3sc-2c1 | 39.8 | 6.35 |
| O=C(CSc1nnc(Cc2ccccc2)o1)Nc1ccccc1 | > 100 | – |
| CC1=NNC(=O)C1C1CC(c2c[nH]c3ccccc23)=NNC1=O (stereo not given) | > 100 | – |
| Clc1ccc(Nc2nc3ccccc3nc2-c2cccs2)cc1Cl | > 100 | – |
| Cc1[nH]c2ccccc2c1C(=O)CC1(O)C(=O)Nc2c(Cl)cc(Cl)cc21 (stereo not given) | > 100 | – |
| Cc1cc(S(=O)(=O)Nc2nc3ccccc3nc2-c2cccc([N+](=O)[O-])c2)c(S)cc1Cl | 40.1 | – |
| O=c1nc(NC2CCCCO2)ccn1CCO (stereo not given) | > 100 | – |
| O=c1[nH]cc(-c2c[nH]c3ccccc23)nc1-c1c[nH]c2ccccc12 | 28.9 | – |
| C=CC1(NC(=O)c2ccccc2)CCC(C(C)(C)C)CC1 (stereo not given) | > 100 | – |
| CC(C)(C)OC(=O)NC(Cc1ccc(O)cc1)C(=O)N1CCCC1C(=O)O (stereo not drawn) (Boc-Tyr-Pro-OH; configuration not given here) | > 100 | – |
| CC(C)(C)OC(=O)N/N=C(/N)Cc1ccc(Cl)cc1 | > 100 | – |
| CN(N=O)C(=O)ON1C(=O)CCC1=O | > 100 | – |
| COc1ccccc1-c1cc(=O)c2cc(C)cnc2[nH]1 | > 100 | – |
| CC(=O)CN(Cc1cc(C)c2c(c1)c1ccccc1n2Cc1ccccc1)S(=O)(=O)c1ccc(C)cc1 | > 100 | – |
| CCc1nn(CN2CCOCC2)c(=S)n1/N=C/c1ccc(-c2ccc(Cl)cc2)o1 | > 100 | – |

| Compound | TGI [µM] | GI50 [µM] |
| --- | --- | --- |
| O=C1OC2(CC1C1(O)C3CC4CC(C3)CC1C4)C1CC3CC(C1)CC2C3 (stereo not given) | > 100 | – |
| NC(CSC1c2ccccc2-c2ccccc21)C(=O)O (stereo not given) | > 100 | – |
| Cc1c(/C=N/N=C/c2[nH]c(C(=O)OC(C)(C)C)c(C)c2C)[nH]c(C(=O)OC(C)(C)C)c1C | > 100 | – |
| CO/N=C(/C)c1ccc(NC(=O)CSc2nnc(-c3ccncc3)n2-c2ccccc2)cc1 | > 100 | > 100 |
| O=C1/C(=C/c2ccccc2[N+](=O)[O-])Cc2ccccc21 | 32.7 | 5.52 |
| C[C@@H]1CN(Cc2ccc(F)cc2)[C@@H](C)CN1C(=O)c1cc2c(C(=O)C(=O)N(C)C)cn(C)c2cc1Cl | 66.4 | 20.9 |
| O=C1OCC2=C1C(c1ccc(Cl)c(Cl)c1)c1cc3c(cc1N2CCO)OCCO3 (stereo not given) | > 50 | 0.585 |
| OCc1ccc(N2CCCC2c2ccccc2)cc1Cl (stereo not given) | 15.6 | 3.11 |
| COCc1nc(N)nc(N2N=C(C)CC2(C)C)n1 | > 100 | – |
| CCOC(=O)C1C(c2ccc3c(c2)OCO3)c2c([nH][nH]c2=O)CC1(C)O (stereo not given) | > 100 | – |
| CN(C)CCCN1c2ccccc2Sc2ccc3ccccc3c21 | 24.9 | – |
| COc1ccc(CC2(O)C3CC4CCC2C4C3)cc1 (stereo not given) | > 100 | – |
| COc1cc(C(=O)C/C(CCC(=O)Nc2ccccc2[N+](=O)[O-])=N\NC(N)=O)ccc1O | > 100 | – |
| O=C1CCC(N2Cc3cc(CNC(=O)C(F)(F)c4ccc(Cl)cc4)ccc3C2=O)C(=O)N1 (stereo not given) | > 100 | 3.26 |
| COc1cccc(NC(=O)CSc2nnc(-c3ccc(NC(C)=O)cc3)o2)c1 | > 100 | – |
| CC(C)C[C@H](NC(=O)CNC(=O)c1cc(Cl)ccc1Cl)B1OC(=O)CC(CC(=O)O)(C(=O)O)O1 (stereo not given in full) | 67.4 | 5.33 |
| O=C1C(Cl)=C(Nc2ccc(S(=O)(=O)O)cc2)C(=O)c2ccccc21 | > 100 | – |
| O=C(c1ccccc1)c1ccc2nc(-c3c(Cl)c(Cl)c(Cl)c(Cl)c3C(=O)N/N=C/c3ccc(Cl)cc3)[nH]c2c1 | > 100 | – |
| C1CCC([PH+](C2CCCCC2)C2CCCCC2[PH+](C2CCCCC2)C2CCCCC2)CC1.[Au].[CH-]1CCCCC1CC1CCCC[N-]1 (stereo not given) | 1.38 | 0.364 |
| CCC(CCCN)Nc1cc(OC)cc2c(C)ccnc12 (stereo not given) | 28.2 | – |
| O=c1[nH]c(=O)n(C2CC(O)C(COP(=O)(OCc3ccc([N+](=O)[O-])o3)N(CCCCCl)CC(O)CO)O2)cc1F (stereo not given) | > 100 | 2.03 |

| Compound | TGI [µM] | GI50 [µM] |
| --- | --- | --- |
| COc1cc2c(cc1OCCCn1c(-c3ccccn3)nc3ccccc31)N=C[C@@H]1CCCN1C2=O | > 26.1 | 3.5 |
| COc1ccc(C(=O)/C=C/c2ccc(O)c(O)c2)c(OC)c1 | 26.2 | – |
| c1cnn2ncc(-c3ccnc(NCCCN4CCOCC4)n3)c2c1 | > 25 | 7.17 |
| CCCCCCCOc1ccc(/C=C\c2cc[n+](CCCCCCCC[n+]3ccc(/C=C\c4ccc(OCCCCCCC)cc4)cc3)cc2)cc1 | 31.6 | – |
| CC(C)NCCCn1c(Sc2cc3c(cc2I)OCO3)nc2c(N)ncnc21 | – | 0.171 |
| C[N+](C)(C)CCc1ccccc1 | > 100 | – |
| CCN(CC)CC1CCCCN1CC(=O)N1c2ccccc2C(=O)Nc2cccnc21 (stereo not given) | > 100 | – |
| O=C1CC(c2c[nH]c3ccccc23)C(=O)N1 (stereo not given) | > 100 | – |
| COc1cccc(OC)c1C(=O)OCc1ccccc1 | > 100 | – |
| COc1ccc(-c2nc(Nc3cc(C)[nH]n3)c3ccccc3n2)cc1 | > 81.2 | 3.21 |
| Cc1ccc2c(C3Cc4ccccc4N3C(=O)/C=C\C(=O)O)c(C)[nH]c2c1 (stereo not given) | > 100 | – |
| CCOC(=O)/C(C=Nc1c(C)n(C)n(-c2ccccc2)c1=O)=C(/C)O | > 100 | – |
| CCCP1(=O)C=C(C)C(=C(Cl)Cl)C(C)=C1 (stereo not given) | > 100 | – |
| CC(=O)/C=C/c1cn(C(=O)OC(C)(C)C)c2ccc(Br)cc12 | 30.6 | 15.4 |
| CC1CC(C)C(C#N)N(C)c2ccccc21 (stereo not given) | > 100 | – |
| CC#CCC1CCC(OCC)=CC1=O (stereo not given) | > 100 | – |
| CC(=O)OC12C=C(C)C(C(C)C1)C1C(=O)N(CCN3CCOCC3)C(=O)C12 (stereo not given) | > 100 | > 100 |
| Cc1ccc(C2OC(COCc3ccc(Cl)cc3)C(OCc3ccc(Cl)cc3)C2O)cc1 (stereo not given) | 60.8 | – |
| CCCc1c(-c2ccccc2)[nH]c2ccccc2c1=O | > 100 | – |
| CC1(/C=C/CCSc2ccccc2)CC(=O)C2CC1C2(C)C (stereo not given) | > 100 | – |
| COc1cc(N2C(=O)[C@H](O)C2c2ccc(SC)cc2)cc(OC)c1OC (stereo not given in full) | > 100 | 0.058 |

| Compound | TGI [µM] | GI50 [µM] |
| --- | --- | --- |
| O=C(/C=C/c1ccccc1)CCN1CCOCC1 | 50.4 | – |
| O=[N+]([O-])c1ccc(C=Cc2ccccc2)cc1.[C-]#[O+].[C-]#[O+].[C-]#[O+].[Cr] | > 100 | 27.3 |
| O=[N+]([O-])c1nccn1CCCNc1ccnc2cc(Cl)ccc12 | > 100 | – |
| NC(N)=NCC[C@H](NC(=O)OCCCCCn1ccc(=O)[nH]c1=O)C(=O)O | > 100 | – |
| O=C(NNCC(O)COc1ccccc1)c1ccccc1 (stereo not given) | > 100 | – |
| CN(C)c1ccc(NN=C2SC(=Nc3ccccc3)C(=Nc3ccccc3)S2)cc1 | > 100 | – |
| c1ccc2c(c1)C1CCCCCC21N1CCOCC1 (stereo not given) | > 100 | – |
| COC1=CC(=O)C2=C(C1=O)[C@H]1CC[C@]3(C)[C@@H](O)CC[C@H]3[C@@H]1CC2 | 30.4 | – |
| O=C(NC1=C(Cl)C(=O)c2ccccc2C1=O)c1ccc(F)cc1 | 27.8 | – |
| CCN1CCC(C)OP1(=O)Cc1ccccc1 (stereo not given) | > 100 | – |
| N#CC1C(=O)NC23CCCCC2C1c1ccccc1O3 (stereo not given) | > 100 | – |
| COc1cc(/C=C/c2nc(NC(=S)Nc3ccccc3)nnc2C)cc(OC)c1OC | > 100 | – |
| Cc1cc(C)c(-n2[nH]c(=O)n(C)c2=O)c(C)c1 | > 100 | – |
| O=C(NC1CCCCC1)NS(=O)(=O)c1ccc2c(c1)CCC2 | > 100 | – |
| Cc1n[nH]c(=O)n1N1C(=O)CCCC1=O | > 100 | – |
| Nc1ccn(C2C=C(CO)C(O)C2O)c(=O)c1 (stereo not given) | > 625 | – |
| C[n+]1ccc(/C2=C3\C=CC(=N3)/C(c3cc[n+](C)cc3)=c3/cc/c([nH]3)=C(\c3cc[n+](C)cc3)C3=N/C(=C(/c4cc[n+](C)cc4)C4C=CC2N4)C=C3)cc1 | > 100 | – |
| O=C1NC(=O)C2C(=O)NC(=O)C1C2c1c(Cl)cccc1Cl (stereo not given) | > 100 | – |
